Measured values reported in the supplement of paper PMC8728848.
The other results are listed elsewhere or left out.

Experiments:
Experiment in all cases: glycan array binding signal (z-score within array); higher = stronger binding
Details in all cases: glycan notation: IUPAC condensed, linker removed
[1] = biological target: Man(a1-2)Man(a1-3)[Man(a1-2)Man(a1-6)]Man
Summary of the method: (§1)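 Glycan array data were curated from 3228 arrays in the Consortium for Functional Glycomics database and kept only where the protein sequence was available. Glycan names were converted to IUPAC-condensed notation, and columns mapping to the same glycan were averaged. The binding signal is a within-array Z-score, averaged across arrays of the same protein sequence at different concentrations or buffers and across linkers. Negative Z-scores can be read as non-binding.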

[2] = biological target: Man(a1-2)Man(a1-3)[Man(a1-2)Man(a1-6)]Man(a1-6)[Man(a1-2)Man(a1-2)Man(a1-3)]Man
Summary of the method: as §1

[3] = biological target: Man(a1-2)Man(a1-3)[Man(a1-2)Man(a1-6)]Man(a1-6)[Man(a1-2)Man(a1-2)Man(a1-3)]Man(b1-4)GlcNAc(b1-4)GlcNAc
Summary of the method: as §1

[4] = biological target: Man(a1-2)Man(a1-3)[Man(a1-6)]Man(a1-6)[Man(a1-2)Man(a1-3)]Man(b1-4)GlcNAc(b1-4)GlcNAc
Summary of the method: as §1

[5] = biological target: Man(a1-2)Man(a1-6)[Man(a1-3)]Man(a1-6)[Man(a1-2)Man(a1-2)Man(a1-3)]Man
Summary of the method: as §1

[6] = biological target: Man(a1-2)Man(a1-6)[Man(a1-3)]Man(a1-6)[Man(a1-2)Man(a1-2)Man(a1-3)]Man(b1-4)GlcNAc(b1-4)GlcNAc
Summary of the method: as §1

Man(a1-3)[Man(a1-6)]Man = biological target: Man(a1-3)[Man(a1-6)]Man
Summary of the method: as §1

[7] = biological target: Man(a1-3)[Man(a1-6)]Man(a1-6)[Man(a1-2)Man(a1-3)]Man(b1-4)GlcNAc(b1-4)GlcNAc
Summary of the method: as §1

[8] = biological target: Man(a1-3)[Man(a1-6)]Man(a1-6)[Man(a1-3)]Man
Summary of the method: as §1

[9] = biological target: Man(a1-3)[Man(a1-6)]Man(a1-6)[Man(a1-3)]Man(b1-4)GlcNAc(b1-4)GlcNAc
Summary of the method: as §1

[10] = biological target: Man(a1-3)[Man(a1-6)]Man(b1-4)GlcNAc(b1-4)GlcNAc
Summary of the method: as §1

[11] = biological target: Man(a1-3)[Man(a1-6)]Man(b1-4)GlcNAc(b1-4)[Fuc(a1-6)]GlcNAc
Summary of the method: as §1

Man(a1-6)Man = biological target: Man(a1-6)Man
Summary of the method: as §1

Man(b1-4)GlcNAc = biological target: Man(b1-4)GlcNAc
Summary of the method: as §1

MurNAc(b1-4)GlcNAc = biological target: MurNAc(b1-4)GlcNAc
Summary of the method: as §1

Neu5Ac(a2-3)Gal = biological target: Neu5Ac(a2-3)Gal
Summary of the method: as §1

[12] = biological target: Neu5Ac(a2-3)Gal(b1-3)GalNAc
Summary of the method: as §1

[13] = biological target: Neu5Ac(a2-3)Gal(b1-3)GalNAc(b1-3)Gal(a1-4)Gal(b1-4)Glc
Summary of the method: as §1

[14] = biological target: Neu5Ac(a2-3)Gal(b1-3)GalNAc(b1-4)[Neu5Ac(a2-3)]Gal(b1-4)Glc
Summary of the method: as §1

[15] = biological target: Neu5Ac(a2-3)Gal(b1-3)GalNAc(b1-4)[Neu5Ac(a2-8)Neu5Ac(a2-3)]Gal(b1-4)Glc
Summary of the method: as §1

[16] = biological target: Neu5Ac(a2-3)Gal(b1-3)GalNAc6S
Summary of the method: as §1

[17] = biological target: Neu5Ac(a2-3)Gal(b1-3)GlcNAc
Summary of the method: as §1

[18] = biological target: Neu5Ac(a2-3)Gal(b1-3)GlcNAc(b1-2)Man
Summary of the method: as §1

[19] = biological target: Neu5Ac(a2-3)Gal(b1-3)GlcNAc(b1-2)Man(a1-3)[GlcNAc(b1-4)][Neu5Ac(a2-3)Gal(b1-3)GlcNAc(b1-2)Man(a1-6)]Man(b1-4)GlcNAc(b1-4)GlcNAc
Summary of the method: as §1

[20] = biological target: Neu5Ac(a2-3)Gal(b1-3)GlcNAc(b1-2)Man(a1-3)[Neu5Ac(a2-3)Gal(b1-3)GlcNAc(b1-2)Man(a1-6)]Man(b1-4)GlcNAc(b1-4)GlcNAc
Summary of the method: as §1

[21] = biological target: Neu5Ac(a2-3)Gal(b1-3)GlcNAc(b1-3)Gal(b1-3)GlcNAc
Summary of the method: as §1

[22] = biological target: Neu5Ac(a2-3)Gal(b1-3)GlcNAc(b1-3)Gal(b1-4)GlcNAc
Summary of the method: as §1

[23] = biological target: Neu5Ac(a2-3)Gal(b1-3)GlcNAc(b1-3)GalNAc
Summary of the method: as §1

[24] = biological target: Neu5Ac(a2-3)Gal(b1-3)GlcNAc(b1-4)Gal(b1-4)Glc
Summary of the method: as §1

[25] = biological target: Neu5Ac(a2-3)Gal(b1-3)GlcNAc(b1-6)GalNAc
Summary of the method: as §1

[26] = biological target: Neu5Ac(a2-3)Gal(b1-3)GlcNAc6S
Summary of the method: as §1

[27] = biological target: Neu5Ac(a2-3)Gal(b1-3)[Fuc(a1-4)]GlcNAc
Summary of the method: as §1

[28] = biological target: Neu5Ac(a2-3)Gal(b1-3)[Fuc(a1-4)]GlcNAc(b1-3)Gal(b1-3)[Fuc(a1-4)]GlcNAc
Summary of the method: as §1

[29] = biological target: Neu5Ac(a2-3)Gal(b1-3)[Fuc(a1-4)]GlcNAc(b1-3)Gal(b1-4)[Fuc(a1-3)]GlcNAc
Summary of the method: as §1

[30] = biological target: Neu5Ac(a2-3)Gal(b1-3)[GlcNAc(b1-6)]GalNAc
Summary of the method: as §1

[31] = biological target: Neu5Ac(a2-3)Gal(b1-3)[Neu5Ac(a2-6)]GalNAc
Summary of the method: as §1

[32] = biological target: Neu5Ac(a2-3)Gal(b1-3)[Neu5Ac(a2-6)]GlcNAc(b1-3)[Fuc(a1-3)[Gal(b1-4)]GlcNAc(b1-6)]Gal(b1-4)Glc
Summary of the method: as §1

[33] = biological target: Neu5Ac(a2-3)Gal(b1-3)]Neu5Ac(a2-3)Gal(b1-4)]GlcNAc
Summary of the method: as §1

B1: CpGal16 (Clavelina picta) (protein)
chain: MAKMITNYVGKRIECIMVATDMMSTVFSLASATGDLPFYINFRQRENSIVMNTRVHGKWQYEKSQSSGGMNFYEPFRLVVEVRPSVFKVTVSTMGEEDGITFNLQYSQITIKPDEIVAMHLGYCNLRSELLVTDL
For B1, the “glycan array binding signal (z-score)” value [1] was -0.419, the “glycan array binding signal (z-score)” value [2] was -0.232 and the “glycan array binding signal (z-score)” value [3] was -0.3. For the same binder, the “glycan array binding signal (z-score)” value [4] was -0.318, the “glycan array binding signal (z-score)” value [5] was -0.341 and the “glycan array binding signal (z-score)” value [6] was -0.331. For the same binder, the “glycan array binding signal (z-score)” value (Man(a1-3)[Man(a1-6)]Man) was -0.366, the “glycan array binding signal (z-score)” value [7] was -0.328 and the “glycan array binding signal (z-score)” value [8] was -0.43. For the same binder, the “glycan array binding signal (z-score)” value [9] was -0.388, the “glycan array binding signal (z-score)” value [10] was -0.477 and the “glycan array binding signal (z-score)” value [11] was -0.308. For the same binder, the “glycan array binding signal (z-score)” value (Man(a1-6)Man) was -0.17, the “glycan array binding signal (z-score)” value (Man(b1-4)GlcNAc) was -0.449 and the “glycan array binding signal (z-score)” value (MurNAc(b1-4)GlcNAc) was -0.34. For the same binder, the “glycan array binding signal (z-score)” value (Neu5Ac(a2-3)Gal) was -0.234, the “glycan array binding signal (z-score)” value [12] was -0.425 and the “glycan array binding signal (z-score)” value [13] was -0.317. The “glycan array binding signal (z-score)” value [14] was -0.411, the “glycan array binding signal (z-score)” value [15] was -0.405 and the “glycan array binding signal (z-score)” value [16] was -0.352. The “glycan array binding signal (z-score)” value [17] was -0.409, the “glycan array binding signal (z-score)” value [18] was -0.384 and the “glycan array binding signal (z-score)” value [19] was -0.246. For the same binder, the “glycan array binding signal (z-score)” value [20] was -0.338, the “glycan array binding signal (z-score)” value [21] was -0.378 and the “glycan array binding signal (z-score)” value [22] was -0.42. The “glycan array binding signal (z-score)” value [23] was -0.327, the “glycan array binding signal (z-score)” value [24] was -0.455 and the “glycan array binding signal (z-score)” value [25] was -0.383. The “glycan array binding signal (z-score)” value [26] was -0.322, the “glycan array binding signal (z-score)” value [27] was -0.375 and the “glycan array binding signal (z-score)” value [28] was -0.467. For the same binder, the “glycan array binding signal (z-score)” value [29] was -0.273, the “glycan array binding signal (z-score)” value [30] was -0.388 and the “glycan array binding signal (z-score)” value [31] was -0.303. The “glycan array binding signal (z-score)” value [32] was -0.357 and the “glycan array binding signal (z-score)” value [33] was -0.418.
